# Laboratory results reported in article PMC4336329 (PLoS ONE, 2015).
# Hit rate of the full screen: of about 310,000 compounds, about 2,200 (0.71%) showed an effect of 50% or more. Effects have a minus sign here. Some of the results follow.
# Target: human ether-à-go-go-related gene (hERG) potassium channel (human, UniProt Q12809)
# Experiment: primary screen, population patch clamp on CHO cells stably expressing hERG
# human ether-à-go-go-related gene (hERG) potassium channel, sequence (Q12809 whole entry, looked up): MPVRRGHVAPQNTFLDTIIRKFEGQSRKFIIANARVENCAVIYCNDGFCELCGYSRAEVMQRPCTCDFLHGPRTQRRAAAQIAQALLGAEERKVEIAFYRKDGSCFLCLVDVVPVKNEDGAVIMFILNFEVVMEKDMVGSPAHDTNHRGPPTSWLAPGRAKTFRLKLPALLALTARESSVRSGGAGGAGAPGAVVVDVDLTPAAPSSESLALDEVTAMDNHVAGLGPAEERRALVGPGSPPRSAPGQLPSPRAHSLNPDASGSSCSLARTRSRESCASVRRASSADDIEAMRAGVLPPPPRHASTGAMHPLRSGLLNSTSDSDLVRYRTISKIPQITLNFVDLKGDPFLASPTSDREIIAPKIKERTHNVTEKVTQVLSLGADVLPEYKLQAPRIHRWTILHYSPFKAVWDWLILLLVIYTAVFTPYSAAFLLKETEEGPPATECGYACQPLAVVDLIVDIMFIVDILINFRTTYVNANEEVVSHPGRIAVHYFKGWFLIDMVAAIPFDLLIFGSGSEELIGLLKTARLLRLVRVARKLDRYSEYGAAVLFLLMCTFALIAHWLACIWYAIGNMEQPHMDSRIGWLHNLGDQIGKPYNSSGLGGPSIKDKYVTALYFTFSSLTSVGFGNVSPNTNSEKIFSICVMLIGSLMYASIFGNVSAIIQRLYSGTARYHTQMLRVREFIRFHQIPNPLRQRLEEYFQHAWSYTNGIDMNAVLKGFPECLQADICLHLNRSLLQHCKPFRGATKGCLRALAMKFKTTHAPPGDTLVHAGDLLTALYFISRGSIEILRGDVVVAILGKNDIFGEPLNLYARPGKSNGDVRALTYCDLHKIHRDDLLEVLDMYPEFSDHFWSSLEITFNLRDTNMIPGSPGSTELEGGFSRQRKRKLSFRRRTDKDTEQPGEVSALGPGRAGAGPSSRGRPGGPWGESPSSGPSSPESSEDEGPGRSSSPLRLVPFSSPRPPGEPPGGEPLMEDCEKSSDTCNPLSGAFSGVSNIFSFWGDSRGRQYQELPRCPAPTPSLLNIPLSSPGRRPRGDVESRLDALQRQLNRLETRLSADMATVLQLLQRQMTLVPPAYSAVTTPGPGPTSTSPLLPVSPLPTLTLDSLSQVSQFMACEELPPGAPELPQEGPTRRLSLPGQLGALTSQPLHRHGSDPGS
row,Compound,"hERG current change (%, negative = inhibition) at 1uM"
1,CCCOC(=O)c1c(NC(=O)C2C3C=CC(C3)C2C(=O)O)sc2c1CCC(C)C2 (centres unmarked),0.368%
2,CN(Cc1cccc(Cl)c1Cl)c1ccc(S(=O)(=O)N2CCCCC2)cc1[N+](=O)[O-],6.09%
3,CN(C(=O)COC(=O)COc1ccccc1Cc1ccccc1)c1ccccc1,7.45%
4,CCn1c(O)c(C(C#N)=C2N=c3ccccc3=N2)c2ccccc21,5.96%
5,CC(Oc1ccccc1)c1nnc(N)s1 (centres unmarked),-2.39%
6,Cc1ccc(S(=O)Cc2ccc(C(=O)N3CCN(C(=O)c4ccco4)CC3)o2)cc1 (centres unmarked),9.69%
7,CCOc1ccc(NC(=O)CN(C)C(=O)CC2CCCCC2)cc1OCC,3.43%
8,COc1ccc(S(=O)(=O)N2CC(C)OC(C)C2)cc1C(=O)N1CCCCC1 (centres unmarked),9.1%
9,CCCCCOc1ccc(Cn2ccnc2)cc1[N+](=O)[O-].Cl,-9.76%
10,CC1CCN(c2nc3ccc(C(=O)NCCCN4CCCCC4)cc3s2)CC1,-10.3%
11,COC(=O)C1CCN(C(=O)COC(=O)c2n[nH]c3ccccc23)CC1,5.18%
12,CC(NC(=O)CN1CCN(c2ccc(Cl)cc2)CC1)c1ccccc1 (centres unmarked),9.65%
13,O=C(CCN1C(=O)c2ccccc2S1(=O)=O)Nc1ccc(F)cc1F,8.71%
14,COc1ccc(C(=O)N2c3ccc(F)cc3CCC2C)cc1OC (centres unmarked),13.7%
15,CCOc1ccc(NC(=O)NCCCn2c(C)nc3cc(C)c(C)cc32)cc1,8.43%
16,O=S(=O)(NC1CC2CCC1C2)c1ccc(Br)cc1 (centres unmarked),3.76%
17,Cc1ccc(C(=O)Nc2ccc(C(=O)N/N=C/c3ccncc3)cc2)cc1,14.3%
18,O=C(NNC(=S)Nc1ccc(F)cc1)C1CC1c1ccc(Cl)cc1 (centres unmarked),10.2%
19,CCCC(=O)OCC(=O)c1[nH]c(C)c(C(C)=O)c1C,12.6%
20,CSCCC(NS(=O)(=O)c1ccc2c(c1)OCCO2)C(=O)N(C)Cc1ccc(C)cc1 (centres unmarked),6.35%
21,Cc1ccc(CNc2ncnc(N)c2[N+](=O)[O-])cc1,4.69%
22,CCOC(=O)/C(C#N)=C/c1cc2ccccc2nc1Cl,-4.73%
23,Cc1cc(NCCO)c2cc(O)ccc2n1.Cl,26.3%

row,Compound,"hERG current change (%, negative = inhibition) at 1uM"
1,N#CC1=C(N)SC(N)=C(C#N)C1c1cccc(Oc2ccccc2)c1,19.6%
2,CCOc1ccc2c3c(c(=O)oc2c1OCC)CCCC3,13.2%
3,O=C(O)c1ccccc1C(=O)Nc1ccc(Oc2ccccc2)cc1,14.3%
4,C1CC1Cc1noc(CN2CCN(C3C4CC5CC(C4)CC3C5)CC2)n1 (centres unmarked),-15.3%
5,CN1CCSc2ccc(C(=O)Nc3ccc(Cl)cc3)cc21,17.1%
6,NC(=O)c1cc([N+](=O)[O-])ccc1N1CCCCC1,9.4%
7,CCN1CCN(C(CNS(=O)(=O)c2ccc(OC)cc2)c2cccnc2)CC1 (centres unmarked),-17%
8,Nc1cc(=O)[nH]c(SCC(=O)Nc2nc3ccc([N+](=O)[O-])cc3s2)n1,12.8%
9,O=C(O)CSc1ccc2nnc(-c3cccnc3)n2n1,3.33%
10,O=C(Nc1ccccc1)N1CCOCC1,10.9%
11,O=C(NCc1ccccc1)C1=C[C@@H](c2ccc3c(c2)OCO3)C[C@@H](OCc2ccc(CO)cc2)O1,4.61%
12,CCO[C@@H]1OC(C(=O)NCc2ccccc2)=C[C@H](C2CCCCC2)[C@H]1CCCO,0.672%
13,CCCc1[nH]nc2c1C(c1ccsc1)C(C#N)=C(N)O2 (centres unmarked),12.7%
14,Cc1cccc(NC(=O)Cn2nc(-c3ccco3)ccc2=O)c1C,16.7%
15,CCCc1cc(=O)[nH]c(SCC(=O)Nc2ccc(C)c(S(=O)(=O)N3CCCCC3)c2)n1,11%
16,O=C(c1nc2ccccc2[nH]1)c1ccccc1[N+](=O)[O-],11.2%
17,CSCC[C@H](NC(=O)c1ccc(Cl)c(S(=O)(=O)N2CCCC2)c1)c1nc2ccccc2[nH]1,-1.71%
18,O=C(N/N=C/C=C\c1ccco1)c1cccs1,17.6%
19,CCOC(=O)c1c(C)oc2c1c(C(c1cccnc1)N1CCOCC1)c(O)c1ccccc12 (centres unmarked),12.3%
20,COc1cc2c(cc1OC)C(COc1ccccc1OC)N(C(=O)C(C)C)CC2 (centres unmarked),1.25%
21,O=C(NCCCn1ccnc1)c1ccc2ccccc2c1,0.463%
22,CCOc1ccc(-n2ccnc(SCC(=O)Nc3ccc(CC)cc3)c2=O)cc1,9.98%
23,CC(C)(C)c1ccc(N=C2SCC(=O)N2Cc2cccs2)cc1,9.57%

row,Compound,"hERG current change (%, negative = inhibition) at 1uM"
1,NS(=O)(=O)c1ccc(NC(=O)COC(=O)CN2C(=O)C3CC=CCC3C2=O)cc1 (centres unmarked),3.31%
2,N/N=C1\CCCc2c1[nH]c1ccc([N+](=O)[O-])cc21,1.27%
3,CCn1cc(Cl)c(C(=O)Nc2cc(C(=O)OC)cc(C(=O)OC)c2)n1,0.585%
4,COCCn1c(-c2ccc(F)cc2)nc2cccnc21,14.8%
5,O=C(Nc1ccc(Br)cc1)c1ccc(N2C(=O)C3CC=CCC3C2=O)cc1 (centres unmarked),8.54%
6,C/C(=N\NC(=O)C1(C)CC1(Br)Br)c1cccc(NC(=O)C2CCC2)c1 (centres unmarked),-2.65%
7,Cc1ccc(Oc2ncccc2NC(=O)CC2(CC(=O)O)CCCC2)c2c1CCC2,9.24%
8,CCC(=O)OC1(Cc2ccc(CC)cc2)CC(C)N(C)CC1C.Cl (centres unmarked),-11%
9,CC1(C)OC(=O)N(c2ccccc2)C12C=Cc1cc(Br)ccc1O2 (centres unmarked),-0.931%
10,CN(C(=O)c1ccc(C#N)cc1)c1nnc(-c2cnccn2)s1,2.24%
11,CCc1ccc(C(=O)COC(=O)c2cnccn2)cc1,10.8%
12,O=C(NNC(=O)c1cccs1)c1ccco1,10.4%
13,O=C(O)C1=NOC(CNc2ncc(C(F)(F)F)cc2Cl)C1 (centres unmarked),18%
14,CCCNc1nc(N2CCCC2)nc(N2CCCC2)n1,3%
15,Cc1nc2sc(C(c3cccs3)N3CCN(Cc4ccccc4)CC3)c(O)n2n1 (centres unmarked),-50.1%
16,O=C(CCn1c(=O)oc2ccccc21)Nc1ccc(C(=O)O)cc1,-10.5%
17,COc1ccc(NC(=O)CCCn2c(=O)oc3ccccc32)cc1Cl,-2.56%
18,COc1ccc(OC)c(NC(=O)c2cc(S(=O)(=O)N3CCCCC3)c[nH]2)c1,15.7%
19,Cc1cc(Cl)ccc1Oc1nc(-c2ccc(F)cc2)ccc1C#N,-14.8%
20,[O-]/[N+](=C\c1ccccc1)[C@@H]1CCCC[C@@H]1/[N+]([O-])=C/c1ccccc1,13.3%
21,Cc1ccc(S(=O)(=O)N(C)C)cc1NC(=O)c1cc(C(C)(C)C)nn1Cc1ccccc1,11.6%
22,COc1cccc(N2C(=O)CC(N3CCC(c4nc5ccccc5[nH]4)CC3)C2=O)c1 (centres unmarked),5.76%
23,CCC(C(=O)NC(C)(C)C)N(Cc1ccco1)C(=O)CNS(=O)(=O)c1ccc(OC)cc1 (centres unmarked),9.65%

row,Compound,"hERG current change (%, negative = inhibition) at 1uM"
1,O=C(CO/N=C/c1cccc([N+](=O)[O-])c1)NC1CCCCC1,2.34%
2,CCOc1ccc(-c2noc(-c3cccnc3)n2)cc1OCC,12.6%
3,Cc1cc(N2CCNCC2)nc2ccccc12,5.65%
4,Cc1oc(-c2ccc(-c3ccccc3)cc2)nc1CN(CCO)C(C)C,5.48%
5,Cc1c2c(nc3nc4ccccc4n13)CC(C)(C)CC2=O,-9.29%
6,O=C(NCC(c1ccco1)N1CCN(c2ccccc2)CC1)C(=O)NC1CC1 (centres unmarked),4.7%
7,CCOc1ccc(C(=O)O)cn1,15.2%
8,CC(=O)COc1ncn(-c2ccccc2)n1,9.12%
9,Cc1[nH]n2c(=O)cc(C(C)C)nc2c1-c1ccccc1,-0.606%
10,Cc1ccc(NC(=O)CCS(=O)(=O)c2ccc3nc(C)sc3c2)cc1,10.7%
11,O=C(CSc1nnc(-c2cccc(F)c2)o1)N1CCOCC1,17.1%
12,Cc1cccc(Oc2ccc(S(=O)(=O)N3CCCCC3)cc2NC(=O)C2=COCCO2)c1,5.13%
13,CCOCCCNC(=O)C(c1ccccc1)N(Cc1ccc2c(c1)OCO2)C(=O)CNC(C)=O (centres unmarked),7.66%
14,COc1ccccc1CNC(=O)C(CC(C)C)NS(=O)(=O)c1ccc2c(c1)oc(=O)n2C (centres unmarked),5.84%
15,CC(NC(=O)C1CCCN1S(=O)(=O)c1ccccc1)c1ccccc1 (centres unmarked),10.1%
16,CCOc1ccc2nc(SCC(=O)c3ccc(Cl)s3)sc2c1,4.83%
17,Cc1c(C(=O)N(Cc2ccc(F)cc2)C2CCS(=O)(=O)C2)oc2ccccc12 (centres unmarked),12.8%
18,CCn1ncc(Br)c1C(=O)Nc1cccc(F)c1,11.5%
19,CCOC(=O)N1CCC(n2c(SCC(=O)N3CCCC3)nc3ccccc3c2=O)CC1,0.488%
20,O=C(COC(=O)c1oc2ccccc2c1CSc1ccc(Cl)cc1)NC1CCCC1,9.53%
